Assay results taken from PubChem BioAssay AID686978 (National Center for Advancing Translational Sciences (NCATS), 2013).
Hit rate of the full screen: of about 420,000 compounds, about 64,000 (15%) were called active. This list was built around the results that the source calls inconclusive (neither active nor inactive); the mix of calls is not that of the screen. Calls come from the whole dose curve; as a rule, active = well fitted inhibition curve with a large enough effect; inconclusive = small, poorly fitted or top-dose-only effect; inactive = flat fitted curve, though single readings scatter. Potencies of inconclusive entries are left out as doubtful fits.

assay: qHTS for Inhibitors of human tyrosyl-DNA phosphodiesterase 1 (TDP1): qHTS in cells in absence of CPT; conditions: DT40 Tdp1-/- hTDP1 cells, no CPT, ATP luminescence, 48 h; activity change, negative = growth inhibition: at 46.2 µM (top of the series); note: nearly all actives have a fitted effect of over 55% in size
How it was run: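 Chicken DT40 Tdp1-/- cells complemented with human TDP1, screened without camptothecin (DMSO vehicle only), 400 cells/well. Compounds pin-transferred, cells incubated at 37 °C for at least 48 hr. Growth read as ATP-dependent luminescence (CellTiter-Glo, 30 min at RT).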
% is set by controls: 0 for no effect and ±100 for the full control effect; potency is the fitted concentration of half-maximal effect; tags give direction and shape of the fitted curve.

For `CCOC(=O)C(=Nc1ccc(Cl)cc1)NO`, which “activity change, negative = growth inhibition” value is on record?
The value was inactive: 7.66%.

Which Potency does the source give for `COC(=O)c1c(NC(=O)c2ccc(C(=O)c3ccccc3)cc2)sc2c1CC(C)(C)NC2(C)C` here?
Its Potency is inconclusive [inhibitor, partial curve, poor fit].

For `NC[C@H]1O[C@H](O[C@H]2[C@H](O[C@@H]3O[C@H](CO)[C@@H](O)[C@H]3O)C(O)[C@H](N)C[C@@H]2N)[C@H](N)[C@@H](O)[C@@H]1O` (stereo partly drawn), which “activity change, negative = growth inhibition” value is on record?
The value was inactive: -8.7% [at 21.1 µM].

For `CC(C(=O)Nc1ccc2c(c1)OCO2)N1CCC(N2CCCCC2)CC1` (stereo not drawn), which “activity change, negative = growth inhibition” value is on record?
Its value is inactive: -0.137%.

For `CCOc1ccc(CC(=O)NC2CC(=O)N(c3ccc4c(c3)OCCO4)C2)cc1` (stereo not drawn), which “activity change, negative = growth inhibition” value is on record?
The value was inactive: 5.26%.

For `COc1cccc(Cn2c(=O)c(-c3cccs3)nc3cnc(OCc4ccccc4)nc32)c1`, which “activity change, negative = growth inhibition” value is on record?
Its value is inactive: 17.7%.

With `O=C(NCc1cccnc1)c1ccc(S(=O)(=O)N2CCCCCC2)cc1` as the compound, how does the Potency read?
Its Potency is inconclusive [inhibitor, partial curve].

Which Potency does the source give for `Cc1nnsc1C(=O)N1CCN(c2cc(C(F)(F)F)ccn2)CC1` here?
The Potency was inconclusive [inhibitor, single point].

With `NS(=O)(=O)c1ccc(NC(=S)N2CCN(Cc3ccc(Cl)c(Cl)c3)CC2)cc1` as the compound, how does the Potency read?
Its Potency is inconclusive [inhibitor, partial curve].

For `Cc1cccc(NC(=O)COc2cccc3c2CCN(C)C3=O)c1`, which Potency is on record?
Its Potency is inconclusive [inhibitor, partial curve].

For `COc1c(Br)cc(Br)cc1/C=N/n1c(C)nnc1C`, which Potency is on record?
Its Potency is inconclusive [inhibitor, single point].

For `CCS(=O)c1ccccc1C(=O)OCC(=O)Nc1ccc2ccccc2c1` (stereo not drawn), which Potency is on record?
The Potency was inconclusive [inhibitor, single point].

With `Cc1ccc(Nc2cc(-c3ccccc3)nc(C)n2)cc1` as the compound, how does the Potency read?
The Potency was active: 25.9 µM.

With `c1ccc(OCCOc2ncnc3sccc23)cc1` as the compound, how does the “activity change, negative = growth inhibition” value read?
Its value is inactive: -9.47%.

Which “activity change, negative = growth inhibition” value does the source give for `COc1cccc(-c2nccc(N(C)Cc3ccco3)n2)c1` here?
Its value is inactive: -16.8%.

With `N#Cc1ccccc1NC(=O)CC1CCCCC1` as the compound, how does the “activity change, negative = growth inhibition” value read?
The value was inactive: 0.273%.

With `Cc1ccc(NC(=O)CN(C)S(=O)(=O)c2cccc3nsnc23)c(C)c1` as the compound, how does the “activity change, negative = growth inhibition” value read?
The value was inactive: -20.4%.

For `COc1cc(C2C(=O)N(C3CCC(C)CC3)CC(=O)N2CCc2ccc(Cl)cc2)ccc1OC(C)C` (stereo not drawn), which “activity change, negative = growth inhibition” value is on record?
Its value is inactive: -1.37%.

For `CCOC(=O)CCCCCC(=O)Nc1ccc2c(c1)CC(=O)N([C@H](C)CO)C[C@@H](C)[C@H](CN(C)Cc1ccc3c(c1)OCO3)O2`, which Potency is on record?
Its Potency is inconclusive [inhibitor, single point].

With `CC(=O)Nc1c(I)c(C(=O)N[C@H]2C(O)O[C@H](CO)[C@@H](O)[C@@H]2O)c(I)c(N(C)C(C)=O)c1I` (stereo partly drawn) as the compound, how does the Potency read?
The Potency was “inactive”.

For `CN1CCC(N2CCN(C3CN(Cc4cn(Cc5ccc(F)cc5)nn4)S(=O)(=O)C3)CC2)CC1` (stereo not drawn), which “activity change, negative = growth inhibition” value is on record?
The value was inactive: -15.8%.

For `CCCn1c(=N)n(CC(=O)c2ccc(Cl)c(Cl)c2)c2ccccc21`, which Potency is on record?
The Potency was active: 11.6 µM.

Which Potency does the source give for `COc1ccc(CCCc2nnc(SCC(=O)NN)o2)c(C)c1` here?
Its Potency is inconclusive [inhibitor, single point].

Which Potency does the source give for `COc1ccc(CNC(=O)C(=O)NCC(c2cccnc2)N2CCN(c3ccccc3F)CC2)cc1` (stereo not drawn) here?
Its Potency is active: 18.4 µM.

With `Cc1ccc(-c2nnc(NC(=O)CCS(=O)(=O)c3ccccc3)o2)c(C)c1` as the compound, how does the “activity change, negative = growth inhibition” value read?
The value was inactive: -16.1%.

For `CC1CN(C)C(C)c2c1oc1ccc(N)cc21` (stereo not drawn), which Potency is on record?
Its Potency is active: 10.3 µM.

With `COc1ccc(/C=N/NC(=O)c2nnn(-c3nonc3N)c2-c2cccc(OC)c2)cc1` as the compound, how does the “activity change, negative = growth inhibition” value read?
The value was inactive: 12.4%.

Which “activity change, negative = growth inhibition” value does the source give for `Cc1cc(C)n(-c2nc3cc(Cl)c(Cl)cc3nc2Nc2c(C)cccc2C)n1` here?
Its value is inactive: 0.978%.

Which Potency does the source give for `Clc1ccc(NN(Cc2ccncc2)c2ccc(Cl)cc2)cc1` here?
The Potency was inconclusive [inhibitor, single point].

With `CC(=O)Nc1ccc(S(=O)(=O)Nc2ccc3c(c2)n(C)c(=O)n3C)c(C)c1` as the compound, how does the Potency read?
Its Potency is “inactive”.

Which Potency does the source give for `CCc1ccc(C2C(C#N)=C(N)SC(N)=C2C#N)cc1` here?
Its Potency is inconclusive [inhibitor, single point].

Which Potency does the source give for `CCC1=C(OC(=O)N(CC)CC)N2C(=O)OC(=NCCc3c[nH]c4ccccc34)[C@]2(Cc2ccccc2)[C@H]2C1=CC[C@H]1C(=O)N(CC(=O)OC)C(=O)[C@H]12` here?
Its Potency is inconclusive [inhibitor, single point].

With `COc1cccc(-c2cnc(C(O)c3ccc(SC)cc3)[nH]2)c1` (stereo not drawn) as the compound, how does the Potency read?
The Potency was active: 16.4 µM.

For `C[C@H]1CN=C(N(C)C)N1CCC1CCCCC1`, which Potency is on record?
Its Potency is active: 16.4 µM.

Which Potency does the source give for `NC(=O)NC(c1ccc(Cl)cc1)c1ccccc1Cl` (stereo not drawn) here?
Its Potency is inconclusive [inhibitor, partial curve].

For `Cc1nc2ccc(NC(=S)N3CCN(c4ccccn4)CC3)cc2nc1C`, which “activity change, negative = growth inhibition” value is on record?
The value was inactive: -23.3%.

For `O=C(NCCN1CCC(n2c(=O)[nH]c3ccccc32)CC1)c1ccc(F)cc1`, which Potency is on record?
The Potency was inconclusive [inhibitor, partial curve].

Which Potency does the source give for `Cc1noc(C)c1S(=O)(=O)NCCc1csc2nc(-c3ccc(F)cc3)nn12` here?
Its Potency is active: 23.1 µM.

Which “activity change, negative = growth inhibition” value does the source give for `COc1ccc(CC(=O)NNC(=O)c2cc(C)oc2C)cc1OC` here?
Its value is inactive: 3.14%.

Which activity change, negative = growth inhibition does the source give for `CCOc1ccccc1CN1CCN(Cc2ccc3cccc(OC)c3n2)CC1CCO` (stereo not drawn) here?
Its activity change, negative = growth inhibition is inconclusive: -35.2% [inhibitor].

Which “activity change, negative = growth inhibition” value does the source give for `CCC1=Nc2cc(C(=O)NCCN3CCOCC3)ccc2Sc2ccc(C)cc21` here?
The value was inactive: -0.374%.

For `Cc1ccc2c(c1)N(C(=O)CCC(=O)NCCCN1CC(C)CC(C)C1)CCO2` (stereo not drawn), which Potency is on record?
Its Potency is inconclusive [inhibitor, single point].

Which Potency does the source give for `Cc1cc(C)n(-c2nc(NCCCN(C)C)c3c4c(sc3n2)CCCC4)n1` here?
Its Potency is inconclusive [inhibitor, single point].

For `CN1/C(=C/C=C(/C#N)C(N)=O)C(C)(C)c2ccccc21`, which Potency is on record?
Its Potency is active: 3.26 µM.

Which activity change, negative = growth inhibition does the source give for `C[C@@H]1CN([C@H](C)CO)C(=O)CCCn2nncc2CO[C@@H]1CN(C)S(=O)(=O)c1ccccc1F` here?
The activity change, negative = growth inhibition was inconclusive: -26.8% [inhibitor].

With `Cc1cc(S(=O)(=O)NCC(c2ccc(F)cc2)N2CCN(C)CC2)ccc1F` (stereo not drawn) as the compound, how does the Potency read?
Its Potency is inconclusive [inhibitor, single point].

Which “activity change, negative = growth inhibition” value does the source give for `COc1ccc(-n2nc(C(=O)NCc3cc(OC)ccc3OC)c3c4ccccc4n(C)c3c2=O)cc1` here?
Its value is inactive: -11.8%.

Which Potency does the source give for `CC(C)C(=O)Nc1ncc(Cc2ccc(Cl)cc2)s1` here?
The Potency was inconclusive [inhibitor, partial curve].
